Whole data set: some 110,000 compounds, median “z-score” near -0.1, cut for the highest 2% near 2. The list shows a part of the results. Active and inactive are the calls of the source.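 Rule for the calls: active = z-score in the third read window above 3 or below -3; inactive = the rest.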
These compounds were tested against Metabotropic glutamate receptor 8 (Rattus norvegicus) (UniProt P70579) (assay: rat mGluR8 modulators via GIRK flux, primary screen, cell-based, thallium flux, HTS (AID 488969)). Settings: HEK293 rat mGluR8, GIRK (G protein-gated inwardly rectifying potassium channel) thallium flux, FluoZin2; at 10 µM; stronger effect = higher value.
UniProt P70579, sequence (P70579 whole entry, looked up): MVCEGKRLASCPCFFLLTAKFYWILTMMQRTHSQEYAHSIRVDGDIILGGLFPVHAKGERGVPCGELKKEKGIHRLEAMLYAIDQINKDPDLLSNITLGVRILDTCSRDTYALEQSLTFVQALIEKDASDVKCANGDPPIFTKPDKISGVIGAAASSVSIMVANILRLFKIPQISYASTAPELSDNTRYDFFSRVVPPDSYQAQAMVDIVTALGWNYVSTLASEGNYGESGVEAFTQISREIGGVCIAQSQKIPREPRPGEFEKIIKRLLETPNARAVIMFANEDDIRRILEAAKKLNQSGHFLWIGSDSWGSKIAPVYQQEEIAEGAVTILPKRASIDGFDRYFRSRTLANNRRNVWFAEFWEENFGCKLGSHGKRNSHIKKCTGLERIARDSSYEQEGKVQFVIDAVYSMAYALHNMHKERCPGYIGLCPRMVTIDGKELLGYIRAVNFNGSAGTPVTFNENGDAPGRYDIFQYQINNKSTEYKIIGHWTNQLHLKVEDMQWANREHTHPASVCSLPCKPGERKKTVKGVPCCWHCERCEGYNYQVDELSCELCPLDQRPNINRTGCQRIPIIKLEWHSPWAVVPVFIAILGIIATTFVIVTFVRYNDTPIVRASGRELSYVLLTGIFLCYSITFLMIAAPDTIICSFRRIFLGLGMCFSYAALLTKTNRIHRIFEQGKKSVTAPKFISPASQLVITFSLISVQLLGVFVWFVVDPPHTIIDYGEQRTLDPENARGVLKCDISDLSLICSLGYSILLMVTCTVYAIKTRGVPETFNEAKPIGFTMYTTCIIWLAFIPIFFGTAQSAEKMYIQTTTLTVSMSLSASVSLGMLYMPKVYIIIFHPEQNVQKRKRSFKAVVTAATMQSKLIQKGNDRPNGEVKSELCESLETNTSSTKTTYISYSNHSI
In the case of `COc1ccc(Br)cc1CN1CCN(C(=O)Cc2ccccc2)CC1`, the z-score is reported as 0.412. `N#Cc1ccccc1Cn1cc(C(=O)c2cccs2)c2ccccc21` showed a z-score of 0.24. Work on `CCCCCCOc1ccc(CN2CCN(CC)CC2)cc1` yielded a z-score of 0.69. Compound `O=C(COc1ccccc1)Nc1ccc(Cl)cc1C(=O)c1ccccc1` has a z-score of -0.359. With `Cc1nc2cc(-c3cccc(F)c3)nn2c(C)c1CCC(=O)N1CCC2(CC1)OCCO2` the z-score was 0.608. `CCN(CC)C(=O)c1ccc(N2C(=O)C3CC=C(Cl)CC3C2=O)cc1` (centres undefined) gave a z-score of -0.188. In the case of `CCCCn1c(C)c(C(=O)OCC)c2c(CN3CCOCC3)c(O)ccc21`, the z-score is reported as active: 4.12. Work on `O=c1cccc2n1CC1CC2CN(S(=O)(=O)c2ccccc2)C1` (centres undefined) yielded a z-score of 0.151. Work on `Nc1c(C(=O)OCC2CCCO2)c2nc3ccccc3nc2n1Cc1cccs1` (centres undefined) yielded a z-score of -0.55. `COc1ccc(CCn2c(O)c(C=NCc3cccnc3)c(=O)[nH]c2=O)cc1OC` showed a z-score of 0.158. With `CN1CCN(S(=O)(=O)c2cnc(Cl)c(Br)c2)CC1` the z-score was -1.22. Compound `Cc1noc(C)c1C(=O)N1CCC2(CC1)OCCO2` has a z-score of -0.294. With `CCC(COC(=O)NC)NC(=O)Oc1ccccc1` (centres undefined) the z-score was -0.4. In the case of `O=P(c1ccccc1)(c1nc2ccccc2s1)N1CCOCC1` (centres undefined), the z-score is reported as 0.207. `Nc1ccnn1C1CCNCC1` gave a z-score of 0.0563. For `COc1cc(/C=C/C(=O)c2c(O)n(CCc3ccccc3)c(=O)[nH]c2=O)ccc1O`, the z-score was 0.237. `CC(NCc1ccccc1Cl)C(O)c1ccccc1` (centres undefined) was tested, and the z-score was -0.196. `O=C(Cn1c2c(c(-c3ccccc3Cl)cc1=O)CCC2)N1CCC2(CC1)OCCO2` gave a z-score of -0.0282. Work on `CC(=O)OC1N=C(c2ccc(Cl)cc2)c2cc(Br)ccc2NC1=O` (centres undefined) yielded a z-score of -0.187. Work on `CSCc1nnc2n1-c1ccc(Cl)cc1C(c1ccccc1)=NC2` yielded a z-score of -0.724. In the case of `O=C(Nc1ccccc1)Oc1ccccc1`, the z-score is reported as 0.0771. Compound `CCCCc1nc2ccccc2c(=O)n1-c1ccccc1O` has a z-score of -0.0881. Work on `Cn1c(=O)cc(OCC(=O)N2CCN(Cc3ccc4c(c3)OCO4)CC2)c2ccccc21` yielded a z-score of -0.244. For `c1ccc(C2=NP(N3CCOCC3)(N3CCOCC3)=NC(N3CCOCC3)=N2)cc1`, the z-score was -0.516. Work on `CC(C)C12CN3CCN(CC(C3)C1O)C2` (centres undefined) yielded a z-score of -0.631. For `CN1C(=O)/C(=C/c2cccn2-c2ccc3ccccc3c2)C(=O)NC1=S`, the z-score was 0.0101. In the case of `CC[N+](CC)(CC)CCCCCCCCCC[N+](CC)(CC)CC`, the z-score is reported as 0.161. With `CCOC(=O)C1=C(N)Oc2cc(C)oc(=O)c2C12C(=O)N1c3c(cccc32)C(C)=CC1(C)C` (centres undefined) the z-score was -0.154. `O=P(C(=Nc1ccc(Cl)cc1)N1CCOCC1)(N1CCOCC1)N1CCOCC1` showed a z-score of 0.307. Work on `O=C1NC(=O)N(Cc2ccco2)C(=O)/C1=C\c1cccn1CCOc1ccc(Cl)cc1` yielded a z-score of -0.201. With `O=C(c1ccccc1)c1cn(CC(=O)N2CCCC2)c2ccccc12` the z-score was -0.206. `CC1=C(/C=C/c2ccccc2)CCN(C)C1` gave a z-score of -0.494. In the case of `O=C1/C(=C/c2cc3c(cc2Cl)OCO3)N2CCC1CC2`, the z-score is reported as -0.321. `Cc1nc2cc(C(F)(F)F)ccc2n1C1CCN(Cc2nnnn2CCc2ccccc2)CC1` was tested, and the z-score was 0.0449. `CC(=O)N1N=C2C3CCN(CC3)C2C1c1ccccc1` (centres undefined) showed a z-score of -0.042. With `CCC1(CC)C(=N)N(C)C(=O)NC1=O` the z-score was -0.128. In the case of `CSCCC(N=Cc1c(O)n(-c2ccc(F)cc2)c(=O)[nH]c1=O)C(=O)OC(C)(C)C` (centres undefined), the z-score is reported as 1.37. In the case of `O=C(Nc1cccc2ccccc12)c1nn(C23CC4CC(CC(C4)C2)C3)cc1Br`, the z-score is reported as 0.155. Compound `O=[N+]([O-])c1cc(S(=O)(=O)c2ccc(O)c([N+](=O)[O-])c2)ccc1O` has a z-score of -0.235. `CC(C)c1ccc(-n2c(O)c(/C=N/NC(=O)c3ccncc3)c(=O)[nH]c2=O)cc1` was tested, and the z-score was -0.321. With `CC12CC(c3ccccc3O1)C(C(=O)OCc1ccccc1)C(=O)N2` (centres undefined) the z-score was 0.121. Compound `O=C(CN1CCCC1=O)Nc1ccccc1` has a z-score of -0.327. `C=CCn1c(O)c(C(CC)=Nc2cc(OC)ccc2OC)c(=O)[nH]c1=O` showed a z-score of -0.933. Compound `CC(C)c1ccc(N2C(=O)NC(=O)/C(=C\c3cnc(-c4ccccc4)nc3)C2=O)cc1` has a z-score of -0.00736. Compound `Cc1nn(Cc2ccccc2Cl)c(Cl)c1C(=O)OCC(=O)NC(=O)NC1CCCCC1` has a z-score of -0.318. In the case of `CN(C)Cc1ccccc1OC(=O)N(C)C`, the z-score is reported as 0.0556. `CCOP(=O)(OCC)C(NC(=O)c1ccc(Cl)cc1)=C(Cl)Cl` gave a z-score of -0.0435. Work on `COc1ccc(C=C2C(=O)N(C)C(=O)N(C)C2=O)cc1CSc1ccccn1` yielded a z-score of -0.462. `CNCC(O)c1cccc(OC(=O)c2ccccc2C)c1` (centres undefined) was tested, and the z-score was 2.34. Work on `CCC(=O)c1cn(Cc2ccc(C#N)cc2)c2ccccc12` yielded a z-score of -0.807. `CC(=O)OC1(c2ccccc2)CCN(C)C(C)C1C` (centres undefined) was tested, and the z-score was 0.365. Compound `CC(c1ccccc1F)n1cc(C(=O)Nc2ccc3nc[nH]c3c2)nn1` (centres undefined) has a z-score of -1.48. In the case of `CCC(=NCCCN(CC)CC)c1c(O)n(C2CCCCC2)c(=O)[nH]c1=O`, the z-score is reported as -0.25. In the case of `CCCCc1nc2ccccc2c(=O)n1-c1ccccc1[N+](=O)[O-]`, the z-score is reported as -0.394. With `Cc1ccc(N2C(=O)NC(=O)C3(Cc4ccccc4N4CCN(c5ccccc5)CC43)C2=O)cc1` (centres undefined) the z-score was 0.145. Compound `CN1C(=O)N(C)C(=O)C2(Cc3c(ccc4ccccc34)N(C)C2)C1=O` has a z-score of 0.249. `Cc1ccc(N2C(=O)NC(=O)C(CCc3ccncc3)(Cc3cccc(Cl)c3Cl)C2=O)cc1` (centres undefined) showed a z-score of -0.709. `C=CCn1c(O)c(C(C)=Nc2ccc(N(CC)CC)cc2)c(=O)[nH]c1=O` showed a z-score of -0.556. `CCCC1C(C#N)=C(N)Oc2c1c(=O)oc1ccccc21` (centres undefined) gave a z-score of -0.98. In the case of `Cc1ccccc1C1=NCC(=S)Nc2ccc(Cl)cc21`, the z-score is reported as active: 4.39. With `CN1CCc2c(C#N)c(Cl)nc(Cl)c2C1` the z-score was 0.252. `Cc1cccc(NC(N)=S)c1` was tested, and the z-score was 0.00399. `C#CCNc1ccncc1S(=O)(=O)NC(=O)NC(C)C` was tested, and the z-score was 0.02. Compound `CN1CCC(N(C)Cc2cccnc2)CC1` has a z-score of -0.166. `COC(=O)c1c(C)n(Cc2ccc3c(c2)OCO3)c2ccc(O)cc12` was tested, and the z-score was -0.95. `O=C(CN1CCN(CCO)CC1)Nc1ccc(Cl)cc1C(=O)c1ccccc1` showed a z-score of -0.0657. `Cc1ccc2c(c1)CC1(CN2C)C(=O)NC(=O)N(C(C)C)C1=O` (centres undefined) was tested, and the z-score was -0.186. Compound `CCOC(=O)C1=C(N)Oc2cc(C)oc(=O)c2C12C(=O)N1c3c(cc(OC)cc32)C(C)=CC1(C)C` (centres undefined) has a z-score of 1.07. With `OCC12CO[C@@H]3c4ccccc4[C@H](OC1)N32` (some centres undefined) the z-score was -0.0926. `CCOC(=O)C1=C(C)OC(N)=C(C#N)C12C(=O)Nc1ccc(C)cc12` (centres undefined) gave a z-score of -0.252. In the case of `CCCCCCOc1ccc(CN2CCN(C)CC2)cc1`, the z-score is reported as 0.71. For `CCCCn1c(O)c(C(C)=NCCc2ccccc2)c(=O)[nH]c1=O`, the z-score was -0.429. For `O=C(Cc1ccccc1)Oc1ccc(N2C(=O)CCC2=O)cc1`, the z-score was -0.0169. `CCc1ccccc1NC(=O)CSc1nnc([C@@H](N)Cc2c[nH]c3ccccc23)o1` showed a z-score of -0.13. In the case of `CCOC(=O)C1=C(N)Oc2ccccc2C12C(=O)N(CC(=O)OC)C(CC(=O)OC)=C2C(=O)OC` (centres undefined), the z-score is reported as -0.147. Work on `Cc1cccn2c(=O)c3cc(C(=O)N4CCC5(CC4)OCCO5)n(C)c3nc12` yielded a z-score of -0.378. `Cc1ccc(C(=O)n2cc(CCN3CCS(=O)(=O)CC3)c3ccccc32)cc1` gave a z-score of 0.0725. With `Cc1ccc(CC2C(=O)N(C)C(=O)N(C)C2=O)s1` the z-score was 0.26. Compound `O=C(C1CCC(=O)N1C1CCCC1)N1CCC2(CC1)OCCO2` (centres undefined) has a z-score of -0.00875. Work on `COc1ccc(OCC(=O)N2CCN(C3CCC(c4ccccc4)CC3)CC2)cc1` (centres undefined) yielded a z-score of 0.14. For `O=c1c(C=NCCN2CCNCC2)c(O)n(C2CCCCC2)c(=O)n1C1CCCCC1`, the z-score was 2.42. `O=C(N/N=C/c1c(O)n(-c2ccccc2)c(=O)[nH]c1=O)c1ccncc1` was tested, and the z-score was -0.0892. For `CCOC(=O)c1c(-n2c(C)cc(/C=C3/C(=O)NC(=O)N(CC)C3=O)c2C)sc2c1CCCC2`, the z-score was -1.61. For `O=C(CN1CCCCC1)NCC(=O)Nc1ccc(Br)cc1C(=O)c1ccccc1`, the z-score was -0.631. `CCn1c(O)c(C(c2ccccn2)c2c(O)n(CC)c(=S)[nH]c2=O)c(=O)[nH]c1=S` showed a z-score of -0.0345. `O=C(NC(c1ccc(Cl)cc1)P(=O)(Oc1ccccc1)Oc1ccccc1)OCc1ccccc1` (centres undefined) was tested, and the z-score was -0.232. `CN(C)C(=O)Oc1cccc2c(OC(=O)N(C)C)cccc12` showed a z-score of -0.255. `O=C(Cn1cnc2sc3c(c2c1=O)CCCC3)NCCC(=O)N1CCC2(CC1)OCCO2` showed a z-score of 1.33. Compound `C=CCn1c(O)c(C(CC)=NCCC2=CCCCC2)c(=O)[nH]c1=O` has a z-score of -1.62. In the case of `CCN(CC)CC(=O)Nc1ccc(Cl)cc1C(=O)c1ccccc1`, the z-score is reported as -0.272. With `O=C1CN=C(c2ccccc2)c2oc3ccc(Br)cc3c2N1` the z-score was 0.649. Work on `CCOc1ccc(-n2c(O)c(C=NCCN(CC)CC)c(=O)[nH]c2=O)cc1` yielded a z-score of 0.557. `CCCCC(=O)C1C(=O)NC(=O)NC1=O` was tested, and the z-score was -0.0734. With `O=c1[nH]c(=O)n(CCC2=CCCCC2)c(O)c1C=NCCN1CCNCC1` the z-score was -0.157. `CN1CCN(c2ccc(NC(=O)C(C)(C)C)cc2)CC1` was tested, and the z-score was -0.363. Work on `Cc1c(/C=N/O)c2ccccc2n1C` yielded a z-score of 0.0669. Compound `CCN1C(=O)NC(=O)/C(=C\c2ccc(N3CCOCC3)cc2OC)C1=O` has a z-score of 0.512. Work on `COCCCNC(=O)c1c(NC(=O)c2ccccc2Cl)n(Cc2ccccc2)c2nc3ccccc3nc12` yielded a z-score of -0.416. `O=C1/C(=C/c2cc([N+](=O)[O-])ccc2Cl)N2CCC1CC2` gave a z-score of -0.125. `Cn1c(O)c(C=Nc2ccc(Cl)cc2)c(=O)n(C)c1=O` showed a z-score of -0.288. With `C/C(Cl)=C/CC1(CN2CCCC2=O)C(=O)NC(=O)NC1=O` the z-score was -0.483. `CN1CCN(CCOC2c3ccccc3CSc3ccc(Cl)cc32)CC1` (centres undefined) was tested, and the z-score was 1.08. Work on `C=Cn1ccnc1P(=S)(c1c(C)nn(-c2ccccc2)c1C)c1nccn1C=C` yielded a z-score of -0.273. Work on `COc1cc2c(cc1C=O)OCO2` yielded a z-score of -0.411. `CC1(C)C2CC=C(CN3CCC(O)CC3)C1C2` (centres undefined) was tested, and the z-score was -0.129. `O=c1c(C=Nc2cccnc2Cl)c(O)n(CCCCl)c(=O)n1C1CCCCC1` was tested, and the z-score was -0.0224. `C=CCn1c(O)c(C(CC)=Nc2ccccc2NC(C)=O)c(=O)[nH]c1=O` showed a z-score of -0.35. With `Cc1cc(S(=O)(=O)NC(C)C)ccc1OCC(=O)N1CCN(Cc2ccc3c(c2)OCO3)CC1` the z-score was 0.0732. For `CN(C)C(=O)Oc1cccc(NC(=O)N2CCOCC2)c1`, the z-score was -0.136.
